Results on 71 compounds are retold here after PubChem BioAssay AID488969 (Vanderbilt High Throughput Screening Facility, 2010).

Whole data set: some 110,000 compounds, median “z-score” near -0.1, cut for the highest 2% near 2. This is one part of the list.

The assay deals with Metabotropic glutamate receptor 8 (Rattus norvegicus) (UniProt P70579). The experiment in a line: rat mGluR8 modulators via GIRK flux, primary screen, cell-based, thallium flux, HTS (AID 488969). The settings on record: HEK293 rat mGluR8, GIRK (G protein-gated inwardly rectifying potassium channel) thallium flux, FluoZin2; at 10 µM; stronger effect = higher value; submaximal glutamate (EC20) added with thallium.
Sequence of UniProt P70579 (P70579 whole entry, looked up): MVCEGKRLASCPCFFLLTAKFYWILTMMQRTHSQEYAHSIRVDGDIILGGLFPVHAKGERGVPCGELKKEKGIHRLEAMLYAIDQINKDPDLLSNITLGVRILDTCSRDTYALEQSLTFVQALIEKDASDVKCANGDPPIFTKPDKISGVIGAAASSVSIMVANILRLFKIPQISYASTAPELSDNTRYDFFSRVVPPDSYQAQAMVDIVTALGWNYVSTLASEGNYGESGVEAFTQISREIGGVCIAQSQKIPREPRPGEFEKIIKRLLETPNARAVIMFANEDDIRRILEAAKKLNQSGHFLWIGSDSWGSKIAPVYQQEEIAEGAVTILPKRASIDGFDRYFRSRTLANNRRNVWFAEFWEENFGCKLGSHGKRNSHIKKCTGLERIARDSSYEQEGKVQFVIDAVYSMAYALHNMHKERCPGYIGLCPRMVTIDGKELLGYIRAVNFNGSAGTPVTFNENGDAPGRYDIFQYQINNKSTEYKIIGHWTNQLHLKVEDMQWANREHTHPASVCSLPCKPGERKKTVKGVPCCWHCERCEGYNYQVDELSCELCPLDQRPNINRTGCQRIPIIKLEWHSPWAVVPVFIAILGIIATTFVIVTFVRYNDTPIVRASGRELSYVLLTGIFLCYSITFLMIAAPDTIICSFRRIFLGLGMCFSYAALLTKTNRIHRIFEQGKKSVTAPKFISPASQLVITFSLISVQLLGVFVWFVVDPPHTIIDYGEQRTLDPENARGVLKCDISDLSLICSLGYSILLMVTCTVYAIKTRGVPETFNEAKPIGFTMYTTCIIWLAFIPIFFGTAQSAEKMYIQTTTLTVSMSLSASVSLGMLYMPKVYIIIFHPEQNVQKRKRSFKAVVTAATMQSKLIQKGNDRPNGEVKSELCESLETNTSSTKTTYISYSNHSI
`Cc1cc([N+](=O)[O-])nn1CC(=O)N1CCc2ccccc2C1` showed a z-score of 0.0111.
On to `CCSc1ncc(/C=N/Nc2ccc([N+](=O)[O-])cc2)n1C`, for which the z-score is -0.053.
The same measure for `Cc1cccc(C(=O)NCCN2CCCC2)c1`: -0.101; for `O=C(/C=C/c1ccccc1)NC(=S)NNC(=O)Cc1cccs1`: 1.37.
Next, `COc1cc(OC)nc(Oc2ccccc2C(=O)Oc2ccc(Cl)cc2)n1`: -0.347.
For `CCC(C)(C)n1nnnc1C(c1ccc2ncccc2c1)N1CCCCCC1` (stereo unspecified), the z-score is -0.34.
The same measure for `c1cncc(-c2nnc3n2N=C(c2cccs2)CS3)c1`: 0.191.
Next, `Cc1ccc2nc(NC(=O)CSc3nncc(=O)n3N)sc2c1`: -0.12.
`c1cnc2c(c1)ncc1cscc12`: the z-score was -0.0509.
Take `COc1cccc2cc(C(=O)N(Cc3ccccc3)CC3CCCO3)c(=O)oc12` (stereo unspecified): the z-score was -0.307.
The compound `Cc1ccc(Cl)cc1NC(=O)N[C@@H](C)C(=O)O` showed a z-score of -0.33.
For `CCCCCC(=O)Nc1ccc(S(=O)(=O)Nc2ccc(Cl)nn2)cc1`, the z-score was 1.22.
Next, `O=C(CCCCn1c(=O)[nH]c2ccsc2c1=O)NCc1cccnc1`: -0.331; `CCn1c(/C(C#N)=C(\O)CCc2ccccc2)nc2ccccc21`: -0.23.
For `Cc1cccc(N(CC(N)=O)C2SC(=O)N(c3ccccc3)C2=O)c1` (stereo unspecified), the z-score was found to be 0.258.
Regarding `O=C(Nc1nc(-c2cccs2)c(-c2ccccc2)s1)c1ccco1`, the z-score was 0.0269.
The same measure for `Cc1cc(N/N=C/c2ccc(O)cc2)nc(NS(=O)(=O)c2ccccc2)n1`: -0.271; for `O=C(NCc1ccc2c(c1)OCO2)c1ccc(CS(=O)(=O)c2ccc(Br)cc2)o1`: 0.0812; for `COc1ccc(Cc2nnc(SCC(=O)NC3CCCC3)o2)cc1`: 0.209.
Consider `Cc1c(C(=O)/C=C/c2cccs2)oc2ccc(F)cc12`, for which the z-score was -0.232.
The compound `O=c1c2c(-c3ccccc3)csc2ncn1/N=C/c1c2ccccc2cc2ccccc12` had a z-score of -0.133.
Next, `Cc1nc(Sc2cccn2C)c(C(F)(F)F)c(=O)[nH]1`: 0.88.
In turn, `CCCC(OC(=O)CC1Sc2ccccc2NC1=O)C(=O)NCc1ccco1` (stereo unspecified) gave a z-score of 0.0654.
The same measure for `COc1ccc2cc(C(=O)COC(=O)COc3ccc4c(C)cc(=O)oc4c3)ccc2c1`: -0.11.
Consider `O=C(Nc1cc(S(=O)(=O)N2CCCCC2)ccc1O)c1ccccc1NS(=O)(=O)c1ccc(F)c(F)c1`, for which the z-score was -0.243.
Next, `CCN(CC(=O)NC(C)C)Cc1nc2sc3c(c2c(=O)[nH]1)CCC3`: -0.154.
The same measure for `Nc1ccc(C2=Nc3cccc4cccc(c34)N2)cc1`: 0.475; for `O=C(NC1CCCCCC1)C1c2ccccc2C(=O)N1Cc1cccnc1` (stereo unspecified): 1.18.
The same measure for `O=C(CCN1CCN(Cc2ccccc2)CC1)NNC(=O)Cc1ccc(Cl)c(Cl)c1`: 0.102; for `COc1ccccc1N1CCN(C(=O)c2c(-c3c(Cl)cccc3Cl)noc2C)CC1`: -0.322.
With `Clc1ccc(-c2nnc3n2CCCCC3)cc1`, the z-score is -0.169.
The same measure for `O=C(NC1CCCCC1)C1CCCN1C(=O)NCc1ccccc1` (stereo unspecified): 0.608; for `CCOC(=O)C1=C(C)OC(N)=C(C#N)C1c1cc2cc(C)ccc2nc1N1CCCCC1` (stereo unspecified): -0.112.
In the case of `CCOCc1nnc(NC(C)=O)s1`, the z-score was -0.745.
The same measure for `Cc1ccc(C(=O)NN2C(=O)C3C4c5ccccc5C(c5ccccc54)C3C2=O)cc1` (stereo unspecified): 0.15; for `O=C(NCC12CC3CC(CC(C3)C1)C2)c1nn2c(c1Cl)NC(c1ccco1)CC2C(F)(F)F` (stereo unspecified): 0.596; for `CCOc1ccc(S(=O)(=O)N/N=C2/CC(c3ccccc3)Oc3ccccc32)cc1` (stereo unspecified): 0.00369.
`CCOc1ccc(C(=O)Nc2ccc(N3CCN(C)CC3)cc2)cc1Br` came in with a z-score of 0.501.
The same measure for `O=C(Nc1ccc(F)cc1)N1CCN(c2ccc3nnc(-c4ccc(F)cc4)n3n2)CC1`: -1.17; for `CCOC(=O)c1cc(NC(=O)N2CCOCC2)c(C)nc1C`: 0.183.
The same measure for `O=C(Nc1ccc(Cl)cc1)OCc1cncs1`: -0.283.
`CCSc1nnc(NC(=O)c2cccc(S(=O)(=O)N(C)c3ccc(C)cc3)c2)s1` gave a z-score of -0.0838.
Next, `Nc1nc(Cl)cc(N2CCC(c3cc(-c4ccc(Cl)cc4)n[nH]3)CC2)n1`: 0.086.
In turn, `CC(C)C(=O)Nc1c(C(=O)c2ccc(F)cc2)oc2ccccc12` yielded a z-score of -0.347.
The same measure for `Cc1noc(/C=C/N(C)C)c1S(=O)(=O)N1CCN(c2ccccc2)CC1`: -0.527; for `CCCCCC[n+]1c(-c2ccccc2)csc1Nc1ccccc1`: 0.749.
The compound `CCSc1nnc(-c2ccc(OC)cc2)o1` displayed a z-score of -1.05.
Take `O=C(O)c1ccc(OCC(O)Cn2cnc3ccccc32)cc1` (stereo unspecified): the z-score worked out at 0.0329.
In turn, `Cc1cc2n(n1)C(c1ccccc1)CC(c1ccc(Br)cc1)=N2` (stereo unspecified) displayed a z-score of -0.216.
The same measure for `CC(C)CC(=O)NC(=S)Nc1cc(C(=O)O)ccc1Cl`: -0.602; for `COC(=O)c1sccc1NC(=S)N1CCCC(C)C1` (stereo unspecified): 1.11; for `Cc1csc(NC(=O)c2ccc(C)c(S(=O)(=O)N3CCCCC3)c2)n1`: -0.0294.
As for `CCOc1ccc(Nc2nc(Cc3nnc(SCC(=O)O)o3)cs2)cc1`, the z-score was found to be 0.227.
The compound `Cc1ccnc2nc(C(=O)Nc3ccc4c(c3)OCO4)nn12` registered a z-score of 0.0675.
In turn, `NC(=O)c1c(NC(=O)C2CCCO2)sc2c1CCC2` (stereo unspecified) registered a z-score of 0.244.
As to `Cc1c(Cl)cccc1NC(=O)CSc1ncnc2c1cnn2CCc1ccccc1`, the z-score was found to be 0.508.
The same measure for `Cc1cc(C)nc(N2CCC(CNC(=O)CCc3ccccc3)CC2)n1`: -0.0691; for `O=C(CN(C1CCCCC1)S(=O)(=O)c1ccccc1)N1CCCC1`: -0.0754; for `O=C(Nc1cccc(Cl)c1)N1CCN2C(=O)c3ccccc3C12c1ccccc1` (stereo unspecified): -0.426.
In turn, `C/C(=N/NC(=O)Cc1c(C)[nH][nH]c1=O)c1ccc(O)cc1` registered a z-score of -0.278.
For the compound `CCC1(CC)C(=O)NN(c2ccccc2)C1=O`, the z-score is -0.127.
As for `O=C(Nc1ccc(OCC(F)(F)C(F)F)c(C(F)(F)F)c1)c1ccccc1`, the z-score was -0.207.
In turn, `O=C(N/N=C/c1ccc(O)c(O)c1)c1ccc(CSc2cccc3cccnc23)cc1` registered a z-score of -0.148.
The compound `Cc1c(Cl)cccc1NC(=S)NCCc1ccc(S(N)(=O)=O)cc1` registered a z-score of 1.06.
The same measure for `CN1CCN(NC(=O)c2cc(S(=O)(=O)N3CCOCC3)c(Cl)cc2Cl)CC1`: -0.167.
In turn, `O=C(CSc1ncnc2c1oc1ccccc12)NCc1ccc(F)cc1` showed a z-score of -0.486.
Next, `Cn1c(=O)c2c(nc(OCc3cccnc3)n2Cc2c(F)cccc2Cl)n(C)c1=O`: -2.54; `O=C1c2ccccc2C(=O)N1Cc1nc(-c2ccccn2)no1`: 0.0421.
Consider `CCn1c(C)nc2cc(C(=O)n3cc(C(=O)c4ccccc4O)cn3)ccc21`, for which the z-score is -0.483.
The same measure for `O=C(O)c1ccccc1CSc1ncn[nH]1`: 0.0493; for `COc1cc2c(cc1NC(=O)Nc1ccc(C)cc1)oc1ccccc12`: -0.398.
